Measurements from US20200157180A1 (JIANGSU HENGRUI MEDICINE, published 2020).
Each block holds one binder with its values, some of them ahead of it.

Target: human TGF-β1 (human, UniProt P01137 part only)
Test: cell-based or functional assay

Chain of UniProt P01137 (P01137 279-390 limits assumed): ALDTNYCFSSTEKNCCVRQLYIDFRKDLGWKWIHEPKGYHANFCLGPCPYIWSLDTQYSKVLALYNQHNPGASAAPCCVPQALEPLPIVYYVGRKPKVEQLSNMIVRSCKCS

- IC50 (read off the curve): ~0.03 nM
B1: Fusion protein 9 (other)
heavy: QVQLVQSGAEVKKPGASVKVSCKASGYTFTSYWMHWVRQAPGQGLEWMGRIGPNSGFTSYNEKFKNRVTMTRDTSTSTVYMELSSLRSEDTAVYYCARGGSSYDYFDYWGQGTTVTVSSASTKGPSVFPLAPCSRSTSESTAALGCLVKDYFPEPVTVSWNSGALTSGVHTFPAVLQSSGLYSLSSVVTVPSSSLGTKTYTCNVDHKPSNTKVDKRV[gap - human IgG4 Fc with S228P F234A L235A (EU numbers)]AGGGGSGGGGSGGGGSGGGGSGGAVKFPQLCKFCDVRFSTCDNQKSCMSNCSITSICEKPQEVCVAVWRKNDENITLETVCHDPKLPYHDFILEDAASPKCIMKEKKKPGETFFMCSCSSDECNDNIIFSEEYNTSNPD
light: DIVLTQSPASLAVSPGQRATITCRASESVSIHGTHLMHWYQQKPGQPPKLLIYAASNLESGVPARFSGSGSGTDFTLTINPVEAEDTANYYCQQSFEDPLTFGQGTKLEIKRTVAAPSVFIFPPSDEQLKSGTASVVCLLNNFYPREAKVQWKVDNALQSGNSQESVTEQDSKDSTYSLSSTLTLSKADYEKHKVYACEVTHQGLSSPVTKSFNRGEC

- IC50 (read off the curve): ~0.02 nM
B2: M7824 (other)
heavy: EVQLLESGGGLVQPGGSLRLSCAASGFTFSSYIMMWVRQAPGKGLEWVSSIYPSGGITFYADTVKGRFTISRDNSKNTLYLQMNSLRAEDTAVYYCARIKLGTVTTVDYWGQGTLVTVSSASTKGPSVFPLAPSSKSTSGGTAALGCLVKDYFPEPVTVSWNSGALTSGVHTFPAVLQSSGLYSLSSVVTVPSSSLGTQTYICNVNHKPSNTKVDKRV[gap - human IgG1 Fc]GGGGSGGGGSGGGGSGGGGSGIPPHVQKSVNNDMIVTDNNGAVKFPQLCKFCDVRFSTCDNQKSCMSNCSITSICEKPQEVCVAVWRKNDENITLETVCHDPKLPYHDFILEDAASPKCIMKEKKKPGETFFMCSCSSDECNDNIIFSEEYNTSNPD
light: QSALTQPASVSGSPGQSITISCTGTSSDVGGYNYVSWYQQHPGKAPKLMIYDVSNRPSGVSNRFSGSKSGNTASLTISGLQAEDEADYYCSSYTSSSTRVFGTGTKVTVLGQPKANPTVTLFPPSSEELQANKATLVCLISDFYPGAVTVAWKADGSPVKAGVETTKPSKQSNNKYAASSYLSLTPEQWKSHRSYSCQVTHEGSTVEKTVAPTECS
